# Reference: US20250381289A1 (Genmab, published 2025)
# T1: human Sema3A recombinant protein (human, UniProt Q14563 21-771, limits assumed)
# T1 sequence (looked up): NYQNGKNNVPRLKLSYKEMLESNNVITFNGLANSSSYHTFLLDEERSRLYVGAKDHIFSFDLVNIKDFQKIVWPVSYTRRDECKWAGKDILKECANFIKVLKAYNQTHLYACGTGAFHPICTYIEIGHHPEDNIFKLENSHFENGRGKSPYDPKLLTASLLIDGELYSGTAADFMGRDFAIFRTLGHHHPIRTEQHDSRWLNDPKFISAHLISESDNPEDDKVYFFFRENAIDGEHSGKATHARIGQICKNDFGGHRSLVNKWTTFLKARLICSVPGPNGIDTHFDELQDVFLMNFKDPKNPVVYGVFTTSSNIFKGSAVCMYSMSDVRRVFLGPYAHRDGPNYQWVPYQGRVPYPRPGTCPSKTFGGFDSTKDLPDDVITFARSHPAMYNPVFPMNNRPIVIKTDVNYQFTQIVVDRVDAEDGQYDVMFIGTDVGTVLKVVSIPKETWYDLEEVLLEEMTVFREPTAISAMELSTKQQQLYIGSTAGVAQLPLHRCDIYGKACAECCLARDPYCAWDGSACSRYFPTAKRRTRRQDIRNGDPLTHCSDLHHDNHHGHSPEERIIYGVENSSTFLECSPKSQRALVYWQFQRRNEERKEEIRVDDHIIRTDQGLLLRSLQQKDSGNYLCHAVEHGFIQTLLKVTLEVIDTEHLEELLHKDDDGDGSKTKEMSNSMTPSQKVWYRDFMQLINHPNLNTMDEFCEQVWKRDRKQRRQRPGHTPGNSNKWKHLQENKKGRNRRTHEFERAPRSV
# T2: human HER4 recombinant protein (human, UniProt Q15303 26-649, limits assumed)
# T2 sequence (looked up): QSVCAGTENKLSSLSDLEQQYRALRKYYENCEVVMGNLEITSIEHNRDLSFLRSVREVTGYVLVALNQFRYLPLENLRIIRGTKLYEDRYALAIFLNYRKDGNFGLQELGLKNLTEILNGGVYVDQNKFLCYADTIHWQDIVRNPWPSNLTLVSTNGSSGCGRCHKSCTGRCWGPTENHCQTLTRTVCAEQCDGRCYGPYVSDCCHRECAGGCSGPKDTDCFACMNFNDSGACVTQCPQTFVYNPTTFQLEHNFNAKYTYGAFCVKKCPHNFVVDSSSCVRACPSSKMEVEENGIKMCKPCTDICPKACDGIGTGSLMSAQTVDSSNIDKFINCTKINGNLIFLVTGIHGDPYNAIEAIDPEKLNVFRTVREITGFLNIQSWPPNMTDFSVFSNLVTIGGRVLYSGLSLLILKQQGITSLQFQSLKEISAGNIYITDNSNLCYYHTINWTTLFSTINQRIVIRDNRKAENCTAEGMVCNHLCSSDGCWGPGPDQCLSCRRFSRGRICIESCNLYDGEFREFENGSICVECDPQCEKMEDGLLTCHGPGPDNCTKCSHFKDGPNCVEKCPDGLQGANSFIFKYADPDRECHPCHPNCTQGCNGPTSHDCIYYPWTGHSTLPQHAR
# B1: Bsab 67 (bispecific antibody, human IgG1, kappa, L234A L235A)
# chain 1: AIQLTQSPESLSASVGDRVTITCRASQDISSALVWYQQKPGKAPKLLIYDASSLESGVPDRFSGSESGTDFTLTISSLQPEDFATYYCQQFNSYPLTFGGGTKVEIKRTVAAPSVFIFPPSDEQLKSGTASVVCLLNNFYPREAKVQWKVDNALQSGNSQESVTEQDSKDSTYSLSSTLTLSKADYEKHKVYACEVTHQGLSSPVTKSFNRGECGGGGSGGGGSGGGGSGGGGSGGGGSGGGGSGGGGSGGGGSQVQLVESGGGVVQPGRSLRLSCAASGFTFSTYGMHWVRQAPGQGLEWVAVIWDDGSYKYYGDSVKGRFTISRDNSKNTLYLQMNSLRAEDTAVYYCARDGITMVRGVMKDYFDYWGQGTLVTVSSASTKGPSVFPLAPSSKSTSGGTAALGCLVKDYFPEPVTVSWNSGALTSGVHTFPAVLQSSGLYSLSSVVTVPSSSLGTQTYICNVNHKPSNTKVDKKV[omitted - human IgG1 Fc with L234A L235A Y349C T366W (EU numbers)]
# chain 2: DIVMTQSPDSLAVSLGERATINCKSSESVDSYANSFLHWYQQKPGQPPKLLIYRASTRESGVPDRFSGSGSGTDFTLTISSLQAEDVAVYYCQQSKEDPLTFGGGTKVEIKRTVAAPSVFIFPPSDEQLKSGTASVVCLLNNFYPREAKVQWKVDNALQSGNSQESVTEQDSKDSTYSLSSTLTLSKADYEKHKVYACEVTHQGLSSPVTKSFNRGECGGGGSGGGGSGGGGSGGGGSGGGGSGGGGSGGGGSGGGGSQVQLVQSGAEVKKPGASVKVSCKASGYIFTAYTMHWVRQAPGQGLEWMGWIKPNNGLANYAQKFQGRVTMTRDTSISTAYMELSRLRSDDTAVYYCARSEITTEFDYWGQGTLVTVSSASTKGPSVFPLAPSSKSTSGGTAALGCLVKDYFPEPVTVSWNSGALTSGVHTFPAVLQSSGLYSLSSVVTVPSSSLGTQTYICNVNHKPSNTKVDKKVEPKSCDKTHTCPPCPAPEAAGGPSVFLFPPKPKDTLMISRTPEVTCVVVDVSHEDPEVKFNWYVDGVEVHNAKTKPREEQYNSTYRVVSVLTVLHQDWLNGKEYKCKVSNKALPAPIEKTISKAKGQPREPQVYTLPPCRDELTKNQVSLSCAVKGFYPSDIAVEWESNGQPENNYKTTPPVLDSDGSFFLVSKLTVDKSRWQQGNVFSCSVMHEALHNHYTQKSLSLSPGK
# notes: two chains, one knob and one hole; also called Basb 67
# B2: Bsab 67-LD038 (5) (bispecific antibody, human IgG1, kappa, L234A L235A)
# chain 1: AIQLTQSPESLSASVGDRVTITCRASQDISSALVWYQQKPGKAPKLLIYDASSLESGVPDRFSGSESGTDFTLTISSLQPEDFATYYCQQFNSYPLTFGGGTKVEIKRTVAAPSVFIFPPSDEQLKSGTASVVCLLNNFYPREAKVQWKVDNALQSGNSQESVTEQDSKDSTYSLSSTLTLSKADYEKHKVYACEVTHQGLSSPVTKSFNRGECGGGGSGGGGSGGGGSGGGGSGGGGSGGGGSGGGGSGGGGSQVQLVESGGGVVQPGRSLRLSCAASGFTFSTYGMHWVRQAPGQGLEWVAVIWDDGSYKYYGDSVKGRFTISRDNSKNTLYLQMNSLRAEDTAVYYCARDGITMVRGVMKDYFDYWGQGTLVTVSSASTKGPSVFPLAPSSKSTSGGTAALGCLVKDYFPEPVTVSWNSGALTSGVHTFPAVLQSSGLYSLSSVVTVPSSSLGTQTYICNVNHKPSNTKVDKKV[omitted - human IgG1 Fc with L234A L235A Y349C T366W (EU numbers)]
# chain 2: DIVMTQSPDSLAVSLGERATINCKSSESVDSYANSFLHWYQQKPGQPPKLLIYRASTRESGVPDRFSGSGSGTDFTLTISSLQAEDVAVYYCQQSKEDPLTFGGGTKVEIKRTVAAPSVFIFPPSDEQLKSGTASVVCLLNNFYPREAKVQWKVDNALQSGNSQESVTEQDSKDSTYSLSSTLTLSKADYEKHKVYACEVTHQGLSSPVTKSFNRGECGGGGSGGGGSGGGGSGGGGSGGGGSGGGGSGGGGSGGGGSQVQLVQSGAEVKKPGASVKVSCKASGYIFTAYTMHWVRQAPGQGLEWMGWIKPNNGLANYAQKFQGRVTMTRDTSISTAYMELSRLRSDDTAVYYCARSEITTEFDYWGQGTLVTVSSASTKGPSVFPLAPSSKSTSGGTAALGCLVKDYFPEPVTVSWNSGALTSGVHTFPAVLQSSGLYSLSSVVTVPSSSLGTQTYICNVNHKPSNTKVDKKVEPKSCDKTHTCPPCPAPEAAGGPSVFLFPPKPKDTLMISRTPEVTCVVVDVSHEDPEVKFNWYVDGVEVHNAKTKPREEQYNSTYRVVSVLTVLHQDWLNGKEYKCKVSNKALPAPIEKTISKAKGQPREPQVYTLPPCRDELTKNQVSLSCAVKGFYPSDIAVEWESNGQPENNYKTTPPVLDSDGSFFLVSKLTVDKSRWQQGNVFSCSVMHEALHNHYTQKSLSLSPGK
# modifications: LD038 drug-linker coupled after TCEP reduction; DAR 5.1 by LC-MS; sites not given
# notes: also called Basb 67-LD038 (5)
# Columns and labels:
# Human EGFR = target: T3, Human EGFR (human, UniProt P00533); experiment: ELISA, coated human EGFR, anti-human Fc-HRP
# T3 construct: recombinant protein; also called human EGFR recombinant protein
# [1] = target: T1, human Sema3A recombinant protein; experiment: ELISA, coated human Sema3A, anti-human Fc-HRP
# [2] = target: T4, cMET on EGFR and cMET co-expressed tumor cell lines (UniProt P08581); experiment: flow cytometry, SNU-5 cells (co-express EGFR and cMET; both arms contribute)
# T4 construct: whole, on cells
# T4 sequence (P08581 25-1390 limits assumed): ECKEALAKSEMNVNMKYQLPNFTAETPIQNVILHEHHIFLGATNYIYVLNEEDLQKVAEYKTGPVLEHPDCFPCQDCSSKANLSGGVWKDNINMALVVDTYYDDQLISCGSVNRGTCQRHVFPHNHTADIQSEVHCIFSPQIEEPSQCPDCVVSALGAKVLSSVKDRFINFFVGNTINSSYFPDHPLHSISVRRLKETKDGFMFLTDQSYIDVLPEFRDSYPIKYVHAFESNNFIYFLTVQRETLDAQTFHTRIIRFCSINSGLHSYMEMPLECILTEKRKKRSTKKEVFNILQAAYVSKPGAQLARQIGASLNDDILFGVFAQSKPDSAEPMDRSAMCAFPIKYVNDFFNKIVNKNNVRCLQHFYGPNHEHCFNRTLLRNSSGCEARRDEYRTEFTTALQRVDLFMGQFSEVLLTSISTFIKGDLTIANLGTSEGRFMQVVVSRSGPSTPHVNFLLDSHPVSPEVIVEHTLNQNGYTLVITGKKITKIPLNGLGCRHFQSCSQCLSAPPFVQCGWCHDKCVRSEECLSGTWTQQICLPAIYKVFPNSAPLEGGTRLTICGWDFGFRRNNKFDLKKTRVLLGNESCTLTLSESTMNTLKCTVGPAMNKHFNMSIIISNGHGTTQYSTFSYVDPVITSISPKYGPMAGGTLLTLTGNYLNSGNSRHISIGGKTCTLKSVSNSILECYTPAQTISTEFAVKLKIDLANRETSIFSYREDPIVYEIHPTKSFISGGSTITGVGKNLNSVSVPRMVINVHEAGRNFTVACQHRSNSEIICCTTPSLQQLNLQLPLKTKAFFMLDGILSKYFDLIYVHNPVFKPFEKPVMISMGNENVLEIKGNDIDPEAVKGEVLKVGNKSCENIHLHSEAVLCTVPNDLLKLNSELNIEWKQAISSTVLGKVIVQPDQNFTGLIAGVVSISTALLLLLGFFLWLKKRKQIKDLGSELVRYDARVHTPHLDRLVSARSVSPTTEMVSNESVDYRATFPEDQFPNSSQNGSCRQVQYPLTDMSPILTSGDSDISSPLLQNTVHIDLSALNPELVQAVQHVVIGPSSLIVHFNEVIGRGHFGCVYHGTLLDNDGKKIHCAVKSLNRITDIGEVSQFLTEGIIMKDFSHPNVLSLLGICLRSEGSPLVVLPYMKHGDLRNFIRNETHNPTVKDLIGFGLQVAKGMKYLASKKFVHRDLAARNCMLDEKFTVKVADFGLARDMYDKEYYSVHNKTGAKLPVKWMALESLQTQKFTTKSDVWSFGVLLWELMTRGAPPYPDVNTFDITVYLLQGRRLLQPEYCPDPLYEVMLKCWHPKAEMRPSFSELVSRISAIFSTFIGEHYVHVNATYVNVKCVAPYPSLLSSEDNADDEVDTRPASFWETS
# [3] = target: T5, EGFR on EGFR and cMET co-expressed tumor cell lines (UniProt P00533); experiment: flow cytometry, MKN-45 cells (co-express EGFR and cMET; both arms contribute)
# T5 construct: whole, on cells
# [4] = target: T4, cMET on EGFR and cMET co-expressed …; experiment: as above
# [5] = target: T5, EGFR on EGFR and cMET co-expressed …; experiment: flow cytometry, HT-29 cells (co-express EGFR and cMET; both arms contribute)
# [6] = target: T4, cMET on EGFR and cMET co-expressed …; experiment: as above
# [7] = target: T2, human HER4 recombinant protein; experiment: ELISA, coated human HER4, anti-human Fc-HRP
# [8] = target: T5, EGFR on EGFR and cMET co-expressed …; experiment: flow cytometry, EBC-1 cells (co-express EGFR and cMET; both arms contribute)
# [9] = target: T4, cMET on EGFR and cMET co-expressed …; experiment: as above
# [10] = target: T5, EGFR on EGFR and cMET co-expressed …; experiment: flow cytometry, CAL-27 cells (co-express EGFR and cMET; both arms contribute)
# [11] = target: T4, cMET on EGFR and cMET co-expressed …; experiment: as above
# [12] = target: human HER3 recombinant protein (human, UniProt P21860 part only); experiment: ELISA, coated human HER3, anti-human Fc-HRP
# [13] = target: T6, Mouse EGFR extracellular domain (ECD) linked to His tag (mouse, UniProt Q01279 25-647); experiment: BLI (Octet RED), antibody on anti-human IgG Fc biosensors, ECD-His in solution
# T6 construct: extracellular domain; not shown: His tag
# [14] = target: T2, human HER4 recombinant protein; experiment: ELISA, plate coated with 100 ng/well human HER4 recombinant protein, HRP anti-human Fc, OD450
Binder,EC50 (read off the curve) (Human EGFR) [nM],binding result [1],EC50 (read off the curve) [2] [nM],EC50 (read off the curve) [3] [nM],EC50 (read off the curve) [4] [nM],EC50 (read off the curve) [5] [nM],EC50 (read off the curve) [6] [nM],binding result [7],EC50 (read off the curve) [8] [nM],EC50 (read off the curve) [9] [nM],EC50 (read off the curve) [10] [nM],EC50 (read off the curve) [11] [nM],binding result [12],binding result [13],binding result [14]
B1,~0.5,no binding (tested: about 120 nM),~3,~4,~4,~2,~2,no binding (tested: about 130 nM),~3,~3,~3,~3,no binding (tested: about 130 nM),,
B2,,,,,,,,,,,,,,no binding (tested: 100 nM (highest concentration tested)),no binding
